# According to PubChem BioAssay AID686978 (National Center for Advancing Translational Sciences (NCATS), 2013):
# Among all 420,000 compounds or so, about 64,000 (15%) were called active. Inconclusive results, whose numbers are uncertain, are shown with a selection of clear calls. Calls come from the whole dose curve; as a rule, active = well fitted inhibition curve with a large enough effect; inconclusive = small, poorly fitted or top-dose-only effect; inactive = flat fitted curve, though single readings scatter. No potency is given beside an inconclusive call; the fits are too rough.
# Assay: qHTS for Inhibitors of human tyrosyl-DNA phosphodiesterase 1 (TDP1): qHTS in cells in absence of CPT; note: nearly all actives have a fitted effect of over 55% in size
# Settings: DT40 Tdp1-/- hTDP1 cells, no CPT, ATP luminescence, 48 h; activity change, negative = growth inhibition: at 46.2 µM (top of the series) unless noted
# Procedure, shortened: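 Growth kinetics read by CellTiter-Glo luminescence after ≥48 hr at 37 °C. Cells: DT40 Tdp1-/- stably carrying human TDP1, 400 per well, compound exposure in the absence of CPT (DMSO vehicle).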
# % is set by controls: 0 for no effect and ±100 for the full control effect; potency is the fitted concentration of half-maximal effect; tags give direction and shape of the fitted curve.
Compound,Potency,"activity change, negative = growth inhibition"
O=[N+]([O-])c1cc(/C=N\Nc2nc(-c3ccccc3)cs2)ccc1O,active: 18.4 µM,–
Cc1ccccc1CNC(=O)c1ccc2nc(N3CCOCC3)sc2c1,"inconclusive [inhibitor, single point]",–
O=C(CSc1nc2ccc([N+](=O)[O-])cc2s1)c1ccc2ccccc2c1,"inconclusive [inhibitor, partial curve]",–
COc1ccc(CCN(C)Cc2c(O)ccc3ccccc23)cc1OC,"inconclusive [inhibitor, partial curve]",–
CC(C)c1onc(C(=O)NCCc2ccccc2)c1[N+](=O)[O-],"inconclusive [inhibitor, single point]",–
Cn1c(SCc2ccccc2Br)nc2ccccc2c1=O,"inconclusive [inhibitor, single point]",–
COc1ccc(NC(=O)c2ccc(-c3ccc(C(C)=O)cc3)o2)cn1,"inconclusive [inhibitor, single point]",–
COc1ccc(-c2csc(NC(=O)CCNC(=O)c3ccco3)n2)cc1,–,inactive: -13.8%
CC(=O)Nc1nc(-c2cccc3ccccc23)cs1,"inconclusive [inhibitor, single point]",–
COc1ccc2c(c1OC)C(=O)N(c1ccc(O)cc1)C2,"inconclusive [inhibitor, single point]",–
O=C(O)CSCCc1ccccn1,"inconclusive [inhibitor, single point]",–
O=C(CN1CCC(n2nnc3cc(F)ccc32)CC1)NNC(=O)c1ccccc1,–,inactive: -1.17%
CCOc1ccc(C(=O)OCc2cc(=O)n3cc(C)sc3n2)cc1,–,inactive: 3.73%
COc1ccc(C(=O)c2coc3ccc(OC(C)=O)cc23)cc1,"inconclusive [inhibitor, partial curve, poor fit]",–
Cc1ccc(NC(=O)CN(c2ccc3c(c2)OCO3)S(=O)(=O)c2c(C)n[nH]c2C)cc1,"inconclusive [inhibitor, single point]",–
CCOC(=O)c1c(C)n(C)c2ccc(OC)c(NC(=O)CN3CCCCC3)c12,"inconclusive [inhibitor, single point]",–
CC[C@]1(C(=O)OC)[C@H]2C(=O)N(C)C(=O)[C@H]2[C@H]2CN=C(SCc3ccc(C(=O)OC)cc3)N21,–,inactive: -27.9%
O=[N+]([O-])c1cccc(N/N=C/c2ccc(N3CCOCC3)cc2)c1,active: 16.4 µM,–
CC(C)(C)c1ccc(OCCn2c(CCNC(=O)C3CCCCC3)nc3ccccc32)cc1,active: 3.16 µM,–
CCOc1ccc2nc(SCC(=O)N(CC(C)C)c3c(N)n(Cc4ccccc4)c(=O)[nH]c3=O)[nH]c2c1,"inconclusive [inhibitor, partial curve]",–
COc1ccc(OCC(=O)Nc2cc(-c3nn(C)c(=O)c4ccccc34)ccc2OC)cc1,active: 16.4 µM,–
COc1ccc(-c2nc3scc(CCNC(=O)c4cc(OC)cc(OC)c4)n3n2)cc1,active: 20.6 µM,–

Compound,Potency,"activity change, negative = growth inhibition"
Cc1cc(NC(=O)CSCC(=O)Nc2cccc(S(=O)(=O)N3CCCCCC3)c2)no1,–,inactive: -25.2%
N#Cc1ccc(CN2CC3(CCN(C(=O)c4cccc(F)c4)CC3)C2)cc1,"inconclusive [inhibitor, single point]",–
Cc1[nH]c2ccc(Br)cc2c(=O)c1CN1CCCCCC1,–,inconclusive: -30.3% [inhibitor]
CO[C@H]1/C=C/O[C@@]2(C)Oc3c(C)c(O)c4c(O)c(c5c(c4c3C2=O)NC2(CCN(CC(C)C)CC2)N=5)=NC(=O)/C(C)=C\C=C\[C@H](C)[C@H](O)[C@@H](C)[C@@H](O)[C@@H](C)[C@H](OC(C)=O)[C@@H]1C,active: 20.6 µM,–
COc1ccc(NC2CCCN(Cc3cccc4cnccc34)C2)cc1OC (centres undefined),active: 20.6 µM,–
COc1ccc(C(=O)COc2ccccc2C(N)=O)cc1,"inconclusive [inhibitor, single point]",–
CCNC(=S)/N=C(/Nc1ccccc1)Nc1nc(C)cc(C)n1,"inconclusive [inhibitor, single point]",–
COc1ccccc1NC(=O)c1sc2ncn(Cc3ccccc3Cl)c(=O)c2c1C,"inconclusive [inhibitor, single point]",–
CCOC(=O)C1CCCN(S(=O)(=O)c2ccc3[nH]c(=O)oc3c2)C1 (centres undefined),"inconclusive [inhibitor, single point]",–
CN(Cc1nc(-c2cnccn2)no1)Cc1n[nH]c2c1CCCC2,–,inconclusive: -6.48% [inhibitor]
CC1Cc2ccccc2N1C(=O)CSc1nnc(-c2ccc(S(=O)(=O)N3CCOCC3)cc2)n1C (centres undefined),"inconclusive [inhibitor, single point]",–
COc1ccc2c(c1)C=C(C(=O)NCc1cc(Br)ccc1OC)CO2,"inconclusive [inhibitor, single point]",–
CCCCCn1cc2c(c1-c1ccc(Cl)cc1)c(=O)n(C)c(=O)n2C,active: 16.4 µM,–
Cc1cccc(C(=O)Nc2ccc3oc(-c4ccncc4)nc3c2)c1,active: 11.6 µM,–
CCc1cc(=O)[nH]c(SCc2ccc(C)cc2)n1,–,inactive: -8.3%
CC1(C)CC(=O)C2=C(C1)OC(N)=C(C#N)C21C(=O)N2CCCc3cccc1c32 (centres undefined),–,inactive: -10.1%
O=[N+]([O-])c1cccc(S(=O)(=O)c2cccc([N+](=O)[O-])c2)c1,–,inactive: 3.62%
COc1ccc(-c2[nH]c3ccccc3c2SCCNC(=O)c2ccc(S(=O)(=O)N(C)C)cc2)cc1,active: 2.59 µM,–
O=C(COC(=O)c1cnccn1)c1ccc([N+](=O)[O-])cc1,"inconclusive [inhibitor, partial curve, poor fit]",–
Cn1ccnc1C1CCCCN1C(=O)c1cc(COc2ccc(F)cc2F)on1 (centres undefined),active: 13 µM,–
COc1ccccc1NC(=O)c1cnc(Nc2ccccc2OC)c2ccccc12,active: 1.16 µM,–
C[C@]12c3[nH]c4cc(-c5ccco5)ccc4c3CCN1C(=O)[C@@H](CC(=O)NCC13CC4CC(CC(C4)C1)C3)C[C@@H]2C(=O)N1CCOCC1,"inconclusive [inhibitor, single point]",–
